# Measurements from the supplement of paper PMC8728848.
# The list shows a part of the results.
# B1: Banana lectin (Musa acuminata) (protein)
# chain: MNGAIKVGAHGGNGGSAFDMGPAYRIISVKIFSGDVVDGVDVTFTYYGKTETRHYGGSGGTPHEIVLQEGEYLVGMAGEVANYHGAVVLGKLGFSTNKKAYGPFGNTGGTPFSLPIAAGKISGFFGRGGKFLDAIGVYLEPLEHHHHHH
# Legend:
# Assay in all cases: glycan array binding signal (z-score within array); higher = stronger binding
# Conditions in all cases: glycan notation: IUPAC condensed, linker removed; mutation: W10H
# [1] = target: Gal(b1-4)GlcNAc(b1-3)Gal(b1-4)GlcNAc(b1-2)Man(a1-3)[Gal(b1-4)GlcNAc(b1-3)Gal(b1-4)GlcNAc(b1-2)Man(a1-6)]Man(b1-4)GlcNAc(b1-4)[Fuc(a1-6)]GlcNAc
# Procedure, shortened: (§1)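 The binding signal is a Z-score computed within each array and averaged over linkers. Arrays of the same protein sequence at different concentrations or buffers were also averaged together. Data originate from 3228 arrays in the Consortium for Functional Glycomics database, kept only where the protein sequence was available.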
# [2] = target: Gal(b1-4)GlcNAc(b1-3)Gal(b1-4)GlcNAc(b1-2)[Gal(b1-4)GlcNAc(b1-3)Gal(b1-4)GlcNAc(b1-6)]Man(a1-6)[Gal(b1-4)GlcNAc(b1-3)Gal(b1-4)GlcNAc(b1-2)Man(a1-3)]Man(b1-4)GlcNAc(b1-4)GlcNAc
# Procedure, shortened: as §1
# [3] = target: Gal(b1-4)GlcNAc(b1-3)Gal(b1-4)GlcNAc(b1-2)[Gal(b1-4)GlcNAc(b1-3)Gal(b1-4)GlcNAc(b1-6)]Man(a1-6)[Gal(b1-4)GlcNAc(b1-3)Gal(b1-4)GlcNAc(b1-2)Man(a1-3)]Man(b1-4)GlcNAc(b1-4)[Fuc(a1-6)]GlcNAc
# Procedure, shortened: as §1
# [4] = target: Gal(b1-4)GlcNAc(b1-3)Gal(b1-4)GlcNAc(b1-3)Gal(b1-4)GlcNAc
# Procedure, shortened: as §1
# [5] = target: Gal(b1-4)GlcNAc(b1-3)Gal(b1-4)GlcNAc(b1-3)Gal(b1-4)GlcNAc(b1-2)Man(a1-3)[Gal(b1-4)GlcNAc(b1-3)Gal(b1-4)GlcNAc(b1-3)Gal(b1-4)GlcNAc(b1-2)Man(a1-6)]Man(b1-4)GlcNAc(b1-4)GlcNAc
# Procedure, shortened: as §1
# [6] = target: Gal(b1-4)GlcNAc(b1-3)Gal(b1-4)GlcNAc(b1-3)Gal(b1-4)GlcNAc(b1-2)Man(a1-3)[Gal(b1-4)GlcNAc(b1-3)Gal(b1-4)GlcNAc(b1-3)Gal(b1-4)GlcNAc(b1-2)Man(a1-6)]Man(b1-4)GlcNAc(b1-4)[Fuc(a1-6)]GlcNAc
# Procedure, shortened: as §1
# [7] = target: Gal(b1-4)GlcNAc(b1-3)Gal(b1-4)GlcNAc(b1-3)Gal(b1-4)GlcNAc(b1-2)[Gal(b1-4)GlcNAc(b1-3)Gal(b1-4)GlcNAc(b1-3)Gal(b1-4)GlcNAc(b1-6)]Man(a1-6)[Gal(b1-4)GlcNAc(b1-3)Gal(b1-4)GlcNAc(b1-3)Gal(b1-4)GlcNAc(b1-2)Man(a1-3)]Man(b1-4)GlcNAc(b1-4)[Fuc(a1-6)]GlcNAc
# Procedure, shortened: as §1
# [8] = target: Gal(b1-4)GlcNAc(b1-3)Gal(b1-4)GlcNAc(b1-3)Gal(b1-4)GlcNAc(b1-3)Gal(b1-4)GlcNAc(b1-2)Man(a1-3)[Gal(b1-4)GlcNAc(b1-3)Gal(b1-4)GlcNAc(b1-3)Gal(b1-4)GlcNAc(b1-3)Gal(b1-4)GlcNAc(b1-2)Man(a1-6)]Man(b1-4)GlcNAc(b1-4)GlcNAc
# Procedure, shortened: as §1
# [9] = target: Gal(b1-4)GlcNAc(b1-3)Gal(b1-4)GlcNAc(b1-3)Gal(b1-4)GlcNAc(b1-3)Gal(b1-4)GlcNAc(b1-2)Man(a1-3)[Gal(b1-4)GlcNAc(b1-3)Gal(b1-4)GlcNAc(b1-3)Gal(b1-4)GlcNAc(b1-3)Gal(b1-4)GlcNAc(b1-2)Man(a1-6)]Man(b1-4)GlcNAc(b1-4)[Fuc(a1-6)]GlcNAc
# Procedure, shortened: as §1
# [10] = target: Gal(b1-4)GlcNAc(b1-3)Gal(b1-4)GlcNAc(b1-3)Gal(b1-4)GlcNAc(b1-3)Gal(b1-4)GlcNAc(b1-2)[Gal(b1-4)GlcNAc(b1-3)Gal(b1-4)GlcNAc(b1-3)Gal(b1-4)GlcNAc(b1-3)Gal(b1-4)GlcNAc(b1-6)]Man(a1-6)[Gal(b1-4)GlcNAc(b1-3)Gal(b1-4)GlcNAc(b1-3)Gal(b1-4)GlcNAc(b1-3)Gal(b1-4)GlcNAc(b1-2)Man(a1-3)]Man(b1-4)GlcNAc(b1-4)[Fuc(a1-6)]GlcNAc
# Procedure, shortened: as §1
# [11] = target: Gal(b1-4)GlcNAc(b1-3)Gal(b1-4)GlcNAc(b1-3)Gal(b1-4)GlcNAc(b1-3)Gal(b1-4)GlcNAc(b1-3)Gal(b1-4)GlcNAc(b1-2)Man(a1-3)[Gal(b1-4)GlcNAc(b1-3)Gal(b1-4)GlcNAc(b1-3)Gal(b1-4)GlcNAc(b1-3)Gal(b1-4)GlcNAc(b1-3)Gal(b1-4)GlcNAc(b1-2)Man(a1-6)]Man(b1-4)GlcNAc(b1-4)GlcNAc
# Procedure, shortened: as §1
# [12] = target: Gal(b1-4)GlcNAc(b1-3)Gal(b1-4)GlcNAc(b1-3)Gal(b1-4)GlcNAc(b1-3)Gal(b1-4)GlcNAc(b1-3)Gal(b1-4)GlcNAc(b1-2)Man(a1-3)[Gal(b1-4)GlcNAc(b1-3)Gal(b1-4)GlcNAc(b1-3)Gal(b1-4)GlcNAc(b1-3)Gal(b1-4)GlcNAc(b1-3)Gal(b1-4)GlcNAc(b1-2)Man(a1-6)]Man(b1-4)GlcNAc(b1-4)[Fuc(a1-6)]GlcNAc
# Procedure, shortened: as §1
# [13] = target: Gal(b1-4)GlcNAc(b1-3)Gal(b1-4)GlcNAc(b1-3)Gal(b1-4)GlcNAc(b1-3)Gal(b1-4)GlcNAc(b1-3)Gal(b1-4)GlcNAc(b1-2)[Gal(b1-4)GlcNAc(b1-3)Gal(b1-4)GlcNAc(b1-3)Gal(b1-4)GlcNAc(b1-3)Gal(b1-4)GlcNAc(b1-3)Gal(b1-4)GlcNAc(b1-6)]Man(a1-6)[Gal(b1-4)GlcNAc(b1-3)Gal(b1-4)GlcNAc(b1-3)Gal(b1-4)GlcNAc(b1-3)Gal(b1-4)GlcNAc(b1-3)Gal(b1-4)GlcNAc(b1-2)Man(a1-3)]Man(b1-4)GlcNAc(b1-4)[Fuc(a1-6)]GlcNAc
# Procedure, shortened: as §1
# [14] = target: Gal(b1-4)GlcNAc(b1-3)Gal(b1-4)GlcNAc(b1-3)Gal(b1-4)GlcNAc(b1-3)Gal(b1-4)GlcNAc(b1-3)Gal(b1-4)GlcNAc(b1-3)Gal(b1-4)GlcNAc(b1-2)Man(a1-3)[Gal(b1-4)GlcNAc(b1-3)Gal(b1-4)GlcNAc(b1-3)Gal(b1-4)GlcNAc(b1-3)Gal(b1-4)GlcNAc(b1-3)Gal(b1-4)GlcNAc(b1-3)Gal(b1-4)GlcNAc(b1-2)Man(a1-6)]Man(b1-4)GlcNAc(b1-4)GlcNAc
# Procedure, shortened: as §1
# [15] = target: Gal(b1-4)GlcNAc(b1-3)Gal(b1-4)GlcNAc(b1-3)GalNAc
# Procedure, shortened: as §1
# [16] = target: Gal(b1-4)GlcNAc(b1-3)Gal(b1-4)GlcNAc(b1-3)[Gal(b1-4)GlcNAc(b1-3)Gal(b1-4)GlcNAc(b1-6)]GalNAc
# Procedure, shortened: as §1
# [17] = target: Gal(b1-4)GlcNAc(b1-3)Gal(b1-4)GlcNAc(b1-6)[Gal(b1-3)]GalNAc
# Procedure, shortened: as §1
# [18] = target: Gal(b1-4)GlcNAc(b1-3)Gal(b1-4)[Fuc(a1-3)]GlcNAc(b1-3)Gal(b1-4)[Fuc(a1-3)]GlcNAc
# Procedure, shortened: as §1
# [19] = target: Gal(b1-4)GlcNAc(b1-3)GalNAc
# Procedure, shortened: as §1
# [20] = target: Gal(b1-4)GlcNAc(b1-3)[Fuc(a1-3)GlcNAc(b1-6)]Gal(b1-4)Glc
# Procedure, shortened: as §1
# [21] = target: Gal(b1-4)GlcNAc(b1-3)[Gal(b1-4)GlcNAc(b1-6)]Gal(b1-4)GlcNAc
# Procedure, shortened: as §1
# [22] = target: Gal(b1-4)GlcNAc(b1-3)[GlcNAc(b1-6)]Gal(b1-4)GlcNAc
# Procedure, shortened: as §1
# [23] = target: Gal(b1-4)GlcNAc(b1-6)Gal(b1-4)GlcNAc
# Procedure, shortened: as §1
# [24] = target: Gal(b1-4)GlcNAc(b1-6)GalNAc
# Procedure, shortened: as §1
# [25] = target: Gal(b1-4)GlcNAc(b1-6)[Gal(b1-3)]GalNAc
# Procedure, shortened: as §1
# [26] = target: Gal(b1-4)GlcNAc(b1-6)[Gal(b1-4)GlcNAc(b1-3)]GalNAc
# Procedure, shortened: as §1
# [27] = target: Gal(b1-4)GlcNAc6P
# Procedure, shortened: as §1
# [28] = target: Gal(b1-6)Gal
# Procedure, shortened: as §1
# [29] = target: Gal3S(b1-3)GalNAc
# Procedure, shortened: as §1
# [30] = target: Gal3S(b1-3)GlcNAc
# Procedure, shortened: as §1
# [31] = target: Gal3S(b1-3)[Fuc(a1-4)]GlcNAc
# Procedure, shortened: as §1
# [32] = target: Gal3S(b1-4)Glc
# Procedure, shortened: as §1
# [33] = target: Gal3S(b1-4)Glc6S
# Procedure, shortened: as §1
# [34] = target: Gal3S(b1-4)GlcNAc
# Procedure, shortened: as §1
# [35] = target: Gal3S(b1-4)[Fuc(a1-3)]Glc6S
# Procedure, shortened: as §1
# [36] = target: Gal3S(b1-4)[Fuc(a1-3)]GlcNAc
# Procedure, shortened: as §1
# [37] = target: Gal3S(b1-4)[Fuc(a1-3)]GlcNAc6S
# Procedure, shortened: as §1
# [38] = target: Gal3S4S(b1-4)GlcNAc
# Procedure, shortened: as §1
# [39] = target: Gal3S6S(b1-4)GlcNAc
# Procedure, shortened: as §1
# [40] = target: Gal3S6S(b1-4)GlcNAc6S
# Procedure, shortened: as §1
# [41] = target: Gal4S(b1-4)GlcNAc
# Procedure, shortened: as §1
# [42] = target: Gal4S6S(b1-4)GlcNAc
# Procedure, shortened: as §1
# [43] = target: Gal6P(b1-4)GlcNAc
# Procedure, shortened: as §1
# [44] = target: Gal6S(b1-3)GlcNAc
# Procedure, shortened: as §1
# [45] = target: Gal6S(b1-3)GlcNAc6S
# Procedure, shortened: as §1
binder,measurement,setting,value
B1,glycan array binding signal (z-score),[1],-0.157
same,glycan array binding signal (z-score),[2],-0.113
same,glycan array binding signal (z-score),[3],-0.155
same,glycan array binding signal (z-score),[4],-0.19
same,glycan array binding signal (z-score),[5],-0.169
same,glycan array binding signal (z-score),[6],-0.152
same,glycan array binding signal (z-score),[7],-0.123
same,glycan array binding signal (z-score),[8],-0.127
same,glycan array binding signal (z-score),[9],-0.135
same,glycan array binding signal (z-score),[10],-0.097
same,glycan array binding signal (z-score),[11],-0.137
same,glycan array binding signal (z-score),[12],-0.16
same,glycan array binding signal (z-score),[13],-0.109
same,glycan array binding signal (z-score),[14],0.007
same,glycan array binding signal (z-score),[15],-0.141
same,glycan array binding signal (z-score),[16],-0.168
same,glycan array binding signal (z-score),[17],-0.088
same,glycan array binding signal (z-score),[18],-0.163
same,glycan array binding signal (z-score),[19],-0.17
same,glycan array binding signal (z-score),[20],-0.141
same,glycan array binding signal (z-score),[21],-0.154
same,glycan array binding signal (z-score),[22],-0.194
same,glycan array binding signal (z-score),[23],-0.191
same,glycan array binding signal (z-score),[24],-0.163
same,glycan array binding signal (z-score),[25],-0.17
same,glycan array binding signal (z-score),[26],-0.161
same,glycan array binding signal (z-score),[27],-0.168
same,glycan array binding signal (z-score),[28],-0.191
same,glycan array binding signal (z-score),[29],-0.192
same,glycan array binding signal (z-score),[30],-0.175
same,glycan array binding signal (z-score),[31],-0.171
same,glycan array binding signal (z-score),[32],-0.18
same,glycan array binding signal (z-score),[33],-0.151
same,glycan array binding signal (z-score),[34],-0.191
same,glycan array binding signal (z-score),[35],-0.149
same,glycan array binding signal (z-score),[36],-0.158
same,glycan array binding signal (z-score),[37],-0.151
same,glycan array binding signal (z-score),[38],-0.197
same,glycan array binding signal (z-score),[39],-0.168
same,glycan array binding signal (z-score),[40],-0.156
same,glycan array binding signal (z-score),[41],-0.174
same,glycan array binding signal (z-score),[42],-0.182
same,glycan array binding signal (z-score),[43],-0.178
same,glycan array binding signal (z-score),[44],-0.135
same,glycan array binding signal (z-score),[45],-0.174
